Experimental data reported in ChEMBL document CHEMBL4888484, “Replenishing the malaria drug discovery pipeline: Screening and hit evaluation of the MMV Hit Generation Library 1 (HGL1) against asexual blood stage Plasmodium falciparum ,using a nano luciferase reporter read-out” (2022).
The campaign covered roughly 150,000 compounds. About 540 (0.36%) showed an effect of 50% or more. The list shows a part of the results.

Each compound was assayed on Plasmodium falciparum (assay: Primary screen in NF54 nanoGlo assay, in single point, at 2uM, 72h; a lower Z score goes with more inhibition). Settings: timepoint 72 hour.
Format: functional, Erythrocyte
In the case of `O=C(OCC(=O)N1CCCC1)c1ccc2n[nH]c(=O)n2c1`, the “% Inhibition” value is reported as 29% and the Z score is reported as -3.92.
`CC[C@@H](c1ccncc1)N(C)Cc1nnnn1-c1ccccc1` was tested, and the “% Inhibition” value was -12% and the Z score was 2.23.
In the case of `C[C@H](NC(=O)N1CCC(CN2CCN(C)CC2)CC1)c1cc(F)cc(F)c1`, the “% Inhibition” value is reported as 7% and the Z score is reported as -0.91.
In the case of `NC(=NCc1cc(Br)ccc1F)N1CCCC1`, the “% Inhibition” value is reported as -14% and the Z score is reported as 1.56.
In the case of `Cn1ccc2cc(S(=O)(=O)N3CCN(C(=O)Nc4cc(F)ccc4F)CC3)ccc21`, the “% Inhibition” value is reported as -5% and the Z score is reported as 0.71.
`CCOc1ccc(-n2cc3c(c2-c2ccccc2Cl)c(=O)n(-c2ccccc2)n3C)cc1` was tested, and the “% Inhibition” value was 2% and the Z score was -0.3.
With `Cc1ccc2ncc(C(=O)OCCOc3cccnc3)n2c1` the “% Inhibition” value was -12% and the Z score was 1.2.
In the case of `O=C1CCCC[C@@H](C(=O)NCCc2ccc3c(c2)OCO3)N1`, the “% Inhibition” value is reported as -3% and the Z score is reported as 0.48.
`CN(C)c1noc([C@@H]2CCCN2CC(=O)Nc2nncs2)n1` was tested, and the “% Inhibition” value was 4% and the Z score was -0.55.
In the case of `Oc1ccccc1C1=NN[C@@](O)(C(F)(F)C(F)F)C1`, the “% Inhibition” value is reported as -6% and the Z score is reported as 0.8.
In the case of `CCC1CN(C(=O)C2C3CCCC32)CC(C)O1` (stereo not given), the “% Inhibition” value is reported as -10% and the Z score is reported as 1.37.
With `C=C(C)CN(C)Cc1ccc(C#N)cc1` the “% Inhibition” value was -3% and the Z score was 0.35.
For `O=C(Nc1nnn[nH]1)c1ccc(OCC(F)(F)C(F)F)nc1`, the “% Inhibition” value was -9% and the Z score was 1.28.
For `O=C(Nc1ccc(N2CCCC2=O)cc1)Nc1cccnc1`, the “% Inhibition” value was 8% and the Z score was -1.4.
For `Cc1c[nH]c(CNCC2(c3ccccc3)CC(O)(C(F)(F)F)C2)n1` (stereo not given), the “% Inhibition” value was -10% and the Z score was 1.04.
`CC1CCC(OC2CCN(C(=O)COC[C@H]3CCCO3)CC2)CC1` (stereo not given in full) was tested, and the “% Inhibition” value was 20% and the Z score was -2.62.
For `CCN(CC)S(=O)(=O)c1cc2c(cc1NC1CCCC1)Oc1ccc(C)cc1NC2=O`, the “% Inhibition” value was -16% and the Z score was 2.17.
`Cn1cc(NC(=O)C2CC3CCC2O3)cc(Br)c1=O` (stereo not given) was tested, and the “% Inhibition” value was -5% and the Z score was 0.67.
In the case of `CC(NCC(=O)N(C)c1ccccc1)C1CCCO1` (stereo not given), the “% Inhibition” value is reported as -6% and the Z score is reported as 0.96.
With `CS(=O)(=O)Nc1ccc(Br)cn1` the “% Inhibition” value was -15% and the Z score was 1.92.
`COc1cc(OC)cc(C(=O)N2CCCN(c3nc4cc(C)c(C)cc4nc3-c3ccccc3)CC2)c1` was tested, and the “% Inhibition” value was 3% and the Z score was -0.36.
`CCc1ccc(-c2ccc(C(=O)N(C)[C@@H](C)CS(C)(=O)=O)o2)cc1` was tested, and the “% Inhibition” value was -5% and the Z score was 0.53.
For `CC(C)(CN)NS(=O)(=O)Cc1c(Cl)cccc1Cl`, the “% Inhibition” value was 9% and the Z score was -1.39.
`COc1ccc(NC(=O)C2CCCCC2)cc1S(=O)(=O)N1CCOCC1` was tested, and the “% Inhibition” value was 3% and the Z score was -0.4.
For `O=C(NCc1cnc2c(c1)CCC2)c1cnnn1-c1ccccc1`, the “% Inhibition” value was -6% and the Z score was 0.77.
With `O=C(NCc1nc2ccccc2n1C1CC1)C1CCC(O)CC1` (stereo not given) the “% Inhibition” value was -13% and the Z score was 1.27.
`CC1CN2CCCCC2CN1C(=O)COCC1CC1` (stereo not given) was tested, and the “% Inhibition” value was -4% and the Z score was 0.72.
In the case of `CCn1ncnc1CNc1ccc(C(=O)NC(C)(C)CC)cc1`, the “% Inhibition” value is reported as -8% and the Z score is reported as 1.16.
With `O=C(Nc1ccnc(OCC(F)(F)C(F)F)c1)N1CC[C@H](O)C1` the “% Inhibition” value was -7% and the Z score was 0.97.
In the case of `Cc1ccsc1C(=O)NC[C@H](Cc1ccccc1)C(=O)O`, the “% Inhibition” value is reported as -11% and the Z score is reported as 1.68.
In the case of `Cc1ncc(CNC(=O)C(=O)Nc2ccccc2C(C)C)s1`, the “% Inhibition” value is reported as 4% and the Z score is reported as -0.44.
For `C[C@@H](c1ccncn1)N(C)C(=O)NC(C)(C)CN1CCCCCC1`, the “% Inhibition” value was 1% and the Z score was -0.19.
With `CC(C)(Cc1cccc(Cl)c1)C(=O)NC[C@H](O)c1ccco1` the “% Inhibition” value was 1% and the Z score was -0.15.
With `Cc1cc(NC(=O)COc2ccc(Cl)cc2C2CCCCC2)[nH]n1` the “% Inhibition” value was -13% and the Z score was 1.71.
For `O=C(c1c(F)cc(F)cc1F)C1CCN(C(=O)c2csnn2)CC1`, the “% Inhibition” value was -11% and the Z score was 1.74.
With `Cc1nnc(N2CCC(n3ccnn3)CC2)c(C#N)c1C` the “% Inhibition” value was -19% and the Z score was 2.22.
`CC[C@H](NC(=O)N(C)CC1(c2ccccc2)CC1)c1c(C)noc1C` was tested, and the “% Inhibition” value was -9% and the Z score was 1.08.
`CC[C@@H]1Oc2ccc(NC(=O)Cc3ccc(F)cc3)cc2CN(CCc2ccccc2OC)C1=O` was tested, and the “% Inhibition” value was -6% and the Z score was 0.57.
`CCOc1cc(C(=O)Nc2ccccc2-c2ccccc2)ncn1` was tested, and the “% Inhibition” value was -1% and the Z score was 0.13.
`Cc1ccc(C(=O)N2CCOC[C@H]2c2ncn(CC(F)(F)F)n2)o1` was tested, and the “% Inhibition” value was -3% and the Z score was 0.34.
For `CO[C@H]1CCN(C(=O)CN2CCCCCCC2)C1`, the “% Inhibition” value was 6% and the Z score was -0.91.
In the case of `CC(C)CN(Cc1c(C(C)C)nn(-c2ccccc2)c1N(C)C)C(=O)NC(C)C`, the “% Inhibition” value is reported as -15% and the Z score is reported as 2.43.
With `CCOc1ccc2ccccc2c1C(=O)Nc1cc(C)nn1-c1nc2c(c(=O)[nH]1)CCC2` the “% Inhibition” value was 92% and the Z score was -17.
`Cc1ccc(CC(=O)N2c3ccccc3N(C)C(=O)C[C@@H]2C)s1` was tested, and the “% Inhibition” value was -5% and the Z score was 1.1.
With `Cc1ccc(C)c(OCCNC(=O)N2CCO[C@H](C(=O)N(C)C)C2)c1` the “% Inhibition” value was -15% and the Z score was 2.09.
With `C[C@]1(NC(=O)Nc2ncc(C3CCOCC3)s2)CCCOC1` the “% Inhibition” value was 30% and the Z score was -3.38.
For `O[C@]1(C(F)(F)F)CC(c2ccc(Cl)cc2)=NN1c1nc2ccccc2s1`, the “% Inhibition” value was 5% and the Z score was -0.68.
For `CC(C)[C@H](CNC(N)=O)Cc1ccccc1`, the “% Inhibition” value was -4% and the Z score was 0.46.
In the case of `O=C(NCCc1ccco1)c1cc(Cc2ccccc2)no1`, the “% Inhibition” value is reported as -13% and the Z score is reported as 2.64.
In the case of `c1ccc(Oc2cccc(-c3noc(CC4OCCCO4)n3)c2)cc1`, the “% Inhibition” value is reported as -3% and the Z score is reported as 0.46.
In the case of `COCCNC(=O)c1ccc(-c2ccc(OC)cc2-n2nc(C)cc2C)o1`, the “% Inhibition” value is reported as -7% and the Z score is reported as 1.43.
In the case of `Cc1ccc(OCc2nc(CC(=O)NCCc3ccccc3)cs2)cc1C`, the “% Inhibition” value is reported as -23% and the Z score is reported as 4.5.
With `Cc1cccc(C[C@H]2CC(=O)N(c3nc4ccccc4s3)C2=O)c1` the “% Inhibition” value was -5% and the Z score was 0.69.
In the case of `CC(C)COc1nc(-c2ccccc2F)n(-c2ccc(NC(=O)c3ccc(-c4ccccc4)cc3)cc2)n1`, the “% Inhibition” value is reported as 6% and the Z score is reported as -0.73.
For `CC(C)/C=C(/C(=O)c1ccc(Cl)cc1Cl)n1cncn1`, the “% Inhibition” value was -1% and the Z score was 0.13.
With `c1cncc(CNc2nc3ccccc3s2)c1` the “% Inhibition” value was -14% and the Z score was 1.32.
In the case of `CCc1nsc(N2CC[C@@H](O)[C@H]2c2ccc(Cl)cc2)n1`, the “% Inhibition” value is reported as 3% and the Z score is reported as -0.54.
`Cc1cc(C(=O)N2CCO[C@@H](C)C2)c2c(Br)cccc2n1` was tested, and the “% Inhibition” value was 1% and the Z score was -0.24.
`CC(O)[C@@H]1N[C@@]2(C(=O)Nc3c(Cl)cccc32)[C@H]2C(=O)N(CC3CCCO3)C(=O)[C@@H]12` (stereo not given in full) was tested, and the “% Inhibition” value was -3% and the Z score was 0.33.
`Cc1cccc2c3c([nH]c12)CCN(C[C@H]1CCCO1)C3` was tested, and the “% Inhibition” value was -4% and the Z score was 0.72.
In the case of `Cc1nc2c(C#N)cnn2c(O)c1CC(=O)Nc1ccc(OCC(F)(F)F)cc1`, the “% Inhibition” value is reported as -4% and the Z score is reported as 0.5.
With `O=C(NCCc1nccs1)C(=O)Nc1c(F)cccc1F` the “% Inhibition” value was -14% and the Z score was 1.78.
For `COCCO[C@H]1CN(C2CCN(C(=O)c3ccc4cc[nH]c4c3)CC2)C12CCCCC2`, the “% Inhibition” value was 5% and the Z score was -0.79.
`CC(CNCC(C)(O)c1cnn(C)c1)c1cccc(Cl)c1` (stereo not given) was tested, and the “% Inhibition” value was 1% and the Z score was -0.2.
In the case of `O=S(=O)(Nc1nccn2ccnc12)c1ccc(F)c(Cl)c1`, the “% Inhibition” value is reported as -4% and the Z score is reported as 0.47.
For `Cc1ccc(O)c(C2=NO[C@](O)(C(F)(F)F)C2)c1`, the “% Inhibition” value was -19% and the Z score was 2.43.
With `COC1(C)CC(NC(=O)N2CCC3(CCOC3)C2)C1(C)C` (stereo not given) the “% Inhibition” value was -8% and the Z score was 0.85.
`CC1(CCCN2C(=O)c3ccccc3C2=O)OCCO1` was tested, and the “% Inhibition” value was 0% and the Z score was 0.02.
For `CCCOCC(=O)N1C[C@H](O)[C@@H](F)C1`, the “% Inhibition” value was -8% and the Z score was 0.76.
For `CO[C@H]1CN(C(=O)C(C)(C)c2ccccc2)C[C@H]1OC`, the “% Inhibition” value was 1% and the Z score was -0.05.
With `Cc1ccnc(N(C(=O)CCCN2C(=O)c3ccccc3C2=O)C(=O)CCCN2C(=O)c3ccccc3C2=O)n1` the “% Inhibition” value was -8% and the Z score was 0.83.
For `CC1CC(c2cccc(F)c2)N(C(=O)CCC2NC(=O)NC2=O)C1` (stereo not given), the “% Inhibition” value was -1% and the Z score was 0.11.
With `O=C(NC1CCOCC1)N1CC[C@H](c2ccsc2)C1` the “% Inhibition” value was -25% and the Z score was 3.17.
In the case of `O=C1c2ccccc2[C@@H](Nc2ccc3c(c2)OCCO3)N1c1ccccn1`, the “% Inhibition” value is reported as 35% and the Z score is reported as -4.66.
`COc1ccc(-c2ncncc2-c2csc(C)n2)c(O)c1OC` was tested, and the “% Inhibition” value was -10% and the Z score was 1.33.
With `CCc1cc(=O)n2c3ccccc3n(Cc3ccccc3Cl)c2n1` the “% Inhibition” value was 32% and the Z score was -3.65.
With `C[C@@H](c1nccc(N)n1)N(C)CCCc1ccccc1` the “% Inhibition” value was 3% and the Z score was -0.3.
With `C[C@H](NC(=O)OC(C)(C)C)c1nc(C2CCOCC2)cs1` the “% Inhibition” value was -13% and the Z score was 1.33.
In the case of `Cc1nc([C@H](C)NC(=O)c2ccncc2F)n[nH]1`, the “% Inhibition” value is reported as -2% and the Z score is reported as 0.42.
`Cc1ccc(C2CCN(S(=O)(=O)c3cnc(C4CC4)s3)C2C(=O)O)cc1` (stereo not given) was tested, and the “% Inhibition” value was -3% and the Z score was 0.35.
`CCc1nc(C(=O)NC(c2ccccc2)C(C)C(=O)OC)c[nH]1` (stereo not given) was tested, and the “% Inhibition” value was -4% and the Z score was 0.52.
With `COc1cc(-n2cnnn2)c(Cl)cc1C(=O)N(C)CC(=O)Nc1ccc(F)cc1` the “% Inhibition” value was 4% and the Z score was -0.83.
`Cc1c(Cl)cc(C(=O)N2Cc3nc[nH]c3C[C@H]2C(=O)O)cc1Cl` was tested, and the “% Inhibition” value was -18% and the Z score was 2.65.
`C[C@@H]1CN(C[C@@H]2CN(C(=O)c3cc(C4CC4)no3)C[C@@H]2CO)C[C@H](C)O1` was tested, and the “% Inhibition” value was -5% and the Z score was 0.72.
`CCC1CC(C)CN1C(=O)CC1(CS(C)(=O)=O)CC1` (stereo not given) was tested, and the “% Inhibition” value was -9% and the Z score was 0.93.
